Laboratory results as given in ChEMBL document CHEMBL1157539, “Thousands of chemical starting points for antimalarial lead identification” (Nature, 2010).
Over roughly 13,000 compounds, “IFI” has its median near 4; the highest 2% begin near 17. This is one part of the list.

Test: GSK_TCMDC: Inhibition Frequency Index (IFI). The number of non-kinase HTS assays where a compound showed > 50 % inhibition, expressed as a percentage of the number of such assays in which the compound was tested (-0 is zero)
Format: functional

Row | Structure (SMILES) | IFI
1 | Oc1cccc(Nc2nc(NCc3ccccc3)c3ccccc3n2)c1 | 9.55%
2 | O=C(NCCCCN1CC=C(c2ccc3c(c2OCC2CC2)CCCC3)CC1)c1ccc(-c2ccc(C(F)(F)F)cc2)cc1 | 5.22%
3 | CCOC(=O)C1=C(C)N=c2sc(=Cc3cc(Cl)ccc3O)c(=O)n2C1c1cc(OC)c(OC)cc1Br (stereo not given) | 2.82%
4 | Oc1ccc2c(c1NCC1CCCCC1)CCCC2 | 3.03%
5 | O=C(c1cccs1)N1CCN(c2ccc([N+](=O)[O-])c(NC3CC3)c2)CC1 | 2.38%
6 | CN1CCN(c2nsc3ccc(-c4ccc(NC(=O)Nc5ccccc5)cc4)cc23)CC1 | 10%
7 | CCc1cn2c3c(cc(C(=O)N[C@@H](Cc4cccc(Cl)c4)[C@H](O)CNC4CCOCC4)cc13)N(C)S(=O)(=O)CC2 | 3.17%
8 | COc1ccc(CC2(c3ccc(F)cc3)N=C(N)N(CCCc3ccc4c(c3)OCO4)C2=O)cc1 (stereo not given) | 6.45%
9 | CN(C)CCN(C)Cc1cccc(-c2ccc3c(Nc4ccc(F)cc4Cl)ccnc3c2)c1 | 5.71%
10 | O=C(NCC1CCN(CCN2CCc3ccc4c(c3C2)OCO4)CC1)c1ccc(-c2ccc(C(F)(F)F)cc2)cc1 | 15.5%
11 | COC(=O)Cn1c(C2CCN(CC3CCN(C(=O)/C=C/c4ccc(Cl)c(Cl)c4)CC3)CC2)nc2ccccc21 | 1.42%
12 | COc1ccc2ncc(Cl)c(N3CCC(CCNCc4ccc5c(n4)NC(=O)CS5)CC3)c2c1 | 12.9%
13 | O=C(Nc1cccc(C(F)(F)F)c1)c1ccc(S(=O)(=O)NCC2CCN(CC3CCCCC3)CC2)cc1 | 12.5%
14 | c1ccc(Oc2ccc(Nc3ccnc4cc(-c5ccc(CNCCN6CCOCC6)o5)ccc34)cc2)nc1 | 2.9%
15 | CCn1c(Sc2ccc(C#N)c([N+](=O)[O-])c2)nnc1-c1ccc(OC)cc1 | 1.43%
16 | CCC[C@@H]([C@@H](CC1CCCCC1)C(=O)N[C@H](C(=O)Nc1nccc(N)n1)C(C)(C)C)N(O)C=O | 2.86%
17 | Cc1ccc(NC(=O)Nc2ccc(S(=O)(=O)c3ccc(NC(=O)Nc4ccc(C)c(Cl)c4)cc3)cc2)cc1Cl | 4.26%
18 | COc1ccc(C(=O)C2CC2CN(C)CCC(O)c2ccc(Cl)c(Cl)c2)cc1 (stereo not given) | 3.48%
19 | Cc1ccc(O)cc1Nc1ccnc2cc(-c3csc(CN4CCN(C)CC4)n3)ccc12 | 3.6%
20 | COc1cc(Cc2cnc(N)nc2N)ccc1OCc1ccc(-c2csnn2)cc1 | 2.7%
21 | CC(C)N1CCN(C(=O)c2ccc(CNCCCN3CCN(c4cccc(Cl)c4Cl)CC3)o2)CC1 | 10.8%
22 | CC(=O)Nc1ncc(C(=O)Nc2cccc(-c3ccc(-c4nc5cc(F)ccc5[nH]4)cc3)c2)s1 | 8.33%
23 | O=C(/C=C/C=C/c1ccccc1)NCCCCCN1CCC(c2c[nH]c3ccccc23)CC1 | 3.52%
24 | Cc1cccc2nc(-c3ccc(-c4ccc(CN5CCC(CO)CC5)cc4)s3)[nH]c12 | 3.96%
25 | CC1CCC(NC(=O)c2nn(-c3ccc(Cl)cc3)c(=O)c3ccccc23)CC1 (stereo not given) | 4.44%
26 | CCOc1cc(C(=O)NCc2cccc(C(F)(F)F)c2)ccc1-c1nc2cc(Cl)ccc2[nH]1 | 0.75%
27 | CCCCCN1CCC(NS(=O)(=O)c2ccc(C(=O)Nc3cccc(C(F)(F)F)c3)cc2)C1 (stereo not given) | 4.04%
28 | O=C(NCCN1CCN(S(=O)(=O)c2ccc(OC3CCNCC3)c(Br)c2)CC1)c1ccc(Cl)c(Cl)c1 | 0.74%

Row | Structure (SMILES) | IFI
29 | CC(C)COc1ccc(Cl)cc1Cc1ccc(-c2nc3cc(CCN4CCCC4)ccc3[nH]2)o1 | 22.2%
30 | Nc1c(Cl)cc(C(O)CNCCCCCOCCCc2ccc3ncccc3c2)cc1Cl (stereo not given) | 13.3%
31 | Cc1ccc(-c2cc(C(=O)Nc3ccc(S(=O)(=O)N4CCCC(C)C4)cc3)[nH]n2)c(O)c1 (stereo not given) | 0%
32 | Cn1cccc1CCNCc1ccc(-c2cccc(-c3nc4ccccc4[nH]3)c2)cc1 | 2.88%
33 | CC(C)N1CCN(C(CN2CCN(CCCOc3ccccc3-c3ccccc3)CC2)c2ccc(F)cc2)CC1 (stereo not given) | 13.5%
34 | Cc1[nH]n(-c2cccc(Cl)c2)c(=O)c1-c1ccc(Cl)cc1 | 3.03%
35 | OC(Cn1ccnc1)(c1ccc(Cl)cc1Cl)C1CCCCC1 (stereo not given) | 3.97%
36 | COCCNCc1ccc(-c2ccc3c(Nc4ccc(Cl)cc4F)ccnc3c2)o1 | 7.97%
37 | Cc1cccc2nc(-c3ccc(-c4ccc(NC(=O)Nc5ccc(Cl)c(Cl)c5)cc4)s3)[nH]c12 | 4%
38 | CNC(=O)c1cc(S(=O)(=O)Nc2ccc(OC)cc2)cs1 | -0%
39 | CCNc1cc(CC)nc(Nc2ccc(C)cc2)n1 | 5.71%
40 | COCCN1CCC(N(Cc2ccc(-c3ccc(OC(F)(F)F)cc3)cc2)C(=O)Cn2c(CCc3cccc(F)c3F)cc(=O)c3ccccc32)CC1 | 14.3%
41 | Clc1ccccc1CNc1noc(-c2sccc2Br)n1 | 9.09%
42 | COc1ccc2nccc([C@@H](O)CN3CCC(NCc4nc5cc(F)ccc5o4)CC3)c2c1 | 2.24%
43 | CCN(CC)CCOc1cc2c(cc1Br)-c1cc(Br)c(OCCN(CC)CC)cc1C2=NO | 9.84%
44 | CC1(C)NC(N)=NC(=N)N1OCOc1cc(Cl)c(Cl)cc1Cl | 5.67%
45 | O=C(Nc1cccc(OC2CCN(Cc3ccccc3)CC2)c1)c1ccc([N+](=O)[O-])cc1 | 3.68%
46 | CCN(CC)CCN(Cc1ccc(-c2ccc(Cl)cc2)cc1)C(=O)Cn1c(CCc2cccc(F)c2F)nc(=O)c2ccccc21 | 8.33%
47 | O=C(/C=C/c1ccc(Cl)c(Cl)c1)NCCCCCN1CCC(NC(=O)Nc2ccc(Br)cc2)CC1 | 8.61%
48 | O=C(N[C@@H](Cc1ccccc1)C(=O)NCCN1CCOCC1)c1ccc(O)c(-c2ccc(Cl)c(Cl)c2)c1 | 0.74%
49 | CCN(CC)CCNC(=O)c1ccc(Nc2ncc([N+](=O)[O-])c(Nc3ccccc3OC)n2)cc1 | 10.9%
50 | CCOc1ccccc1C(=O)Nc1cccc(-c2nc3ncccn3c2C)c1 | 1.71%
51 | CN(CCCCN)Cc1ccc(-c2ccc(Cl)cc2)cc1 | 4.44%
52 | CC1(C)CC(NCCCCCCCOc2ccc(OCc3ccccc3)cc2)CC(C)(C)N1 | 16.8%
53 | O=C(Nc1ccc(Cl)cc1)N[C@H]1CCN(CCCCCNC(=O)C2CC2c2ccc(Cl)c(Cl)c2)C1 (stereo not given in full) | 11.5%
54 | CCn1c(Cc2ccccc2)nnc1SCC(=O)N1c2ccccc2Sc2ccccc21 | 6.19%
55 | CCNc1cc(C(=O)N[C@@H](Cc2ccccc2)[C@H](O)CNC2CCC(F)(F)CC2)c(F)c(N2CCCCS2(=O)=O)c1 | 2.96%
